# Assay results from PubChem BioAssay AID504845 (National Center for Advancing Translational Sciences (NCATS), 2011).
# Screen size: about 390,000 compounds; about 150 (0.038%) were called active. The shares of active, inactive and inconclusive entries below differ from those in the screen. Calls come from the whole dose curve; as a rule, active = well fitted inhibition curve with a large enough effect; inconclusive = small, poorly fitted or top-dose-only effect; inactive = no such curve, though single readings can be large or run the other way. Potencies of inconclusive entries are doubtful fits and often do not repeat.
# Molecular target: Regulator of G-protein signaling 4 (Homo sapiens) (UniProt P49798)
# Assay: Inhibitors of Regulator of G Protein Signaling (RGS) 4: qHTS; note: nearly all actives have a fitted effect of over 75% in size
# Details: Transcreener GDP fluorescence polarization, RGS4-accelerated GTP hydrolysis; series mostly up to 114 µM
# Outline: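 MLSMR compounds (23 nl, pin-transferred) preincubated 10 min at room temperature with a 500nM (2x) first reagent, then RGS4 at 900nM (2x) plus Transcreener GDP mix added; fluorescence polarization (620/688 nm) read before and after 90 min at 30 °C.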
# Potency is the fitted concentration of half-maximal effect; tags give direction and shape of the fitted curve.
# UniProt P49798, sequence (P49798 whole entry, looked up): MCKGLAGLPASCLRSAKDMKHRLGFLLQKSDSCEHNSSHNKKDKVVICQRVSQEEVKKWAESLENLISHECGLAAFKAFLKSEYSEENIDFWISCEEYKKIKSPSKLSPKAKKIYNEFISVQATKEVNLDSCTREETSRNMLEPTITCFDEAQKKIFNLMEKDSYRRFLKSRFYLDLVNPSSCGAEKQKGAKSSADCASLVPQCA
row,SMILES,Potency
1,Cc1cccc(N=C2NC(=O)/C(=C/C=C/c3ccco3)S2)c1C,"inconclusive: 100 µM [inhibitor, partial curve, poor fit]"
2,COc1ccc(-c2coc3cc(O)ccc3c2=O)cc1,inactive
3,O=C(NC(=S)NCc1ccccc1)c1ccccc1F,inactive
4,c1ccc(Cc2nc3ccccc3s2)cc1,"inconclusive: 17.8 µM [inhibitor, full curve, poor fit]"
5,C=CCOc1ccc(CNc2ccc3[nH]c(=O)[nH]c3c2)cc1OCC,"inconclusive: 89.1 µM [inhibitor, partial curve, poor fit]"
6,O=C(c1ccc(OC2CCN(CCc3ccccc3)CC2)cc1)N1CCCC1,inactive
7,N=C1C(c2nc(-c3ccc(Br)cc3)cs2)=C(O)CN1NC(=O)c1ccc([N+](=O)[O-])cc1,"inconclusive: 100 µM [inhibitor, partial curve, poor fit]"
8,Cc1cc(C)nc(SCCCn2c(=O)[nH]c3ccccc32)n1,inactive
9,Cc1ccc(-n2ncc3c(N(CC(C)C)CC(C)C)ncnc32)c(C)c1,inactive
10,COC1=CC(=O)C(C2CC(=O)c3c(O)cc(O)cc3O2)=CC1=O (stereo not given),"inconclusive: 28.2 µM [inhibitor, full curve, poor fit]"
11,O=C(O)C(Cc1ccccc1)N1C(=O)/C(=C/C=C/c2ccco2)SC1=S (stereo not given),"inconclusive: 35.5 µM [inhibitor, full curve, poor fit]"
12,COc1cc2c(cc1OC)-c1cc(Nc3ccc(C(=O)O)cc3)nc(=O)n1CC2,inactive
13,COC(=O)c1ccc(C)c(NS(=O)(=O)c2ccc3c(c2)OCCO3)c1,inactive
14,O=C(CSc1nc2ccccc2n1CCc1ccccc1)c1ccc(O)c(O)c1,"inconclusive: 56.2 µM [inhibitor, partial curve, poor fit]"
15,O=C(N/N=C/c1ccncc1)c1ccc(NC(=O)c2cccc(Cl)c2)cc1,"inconclusive: 50.1 µM [inhibitor, partial curve, poor fit]"
16,CC1CCCC2(C1)NC(=S)c1c(sc3c1CCCC3)N2 (stereo not given),"inconclusive: 89.1 µM [inhibitor, partial curve, poor fit]"
17,O=C(CCCN1C(=O)/C(=C\c2ccccc2)SC1=S)Nc1ccc(O)cc1,inactive
18,CCOc1ccc(C(=O)CC(C(=O)O)N2CCCCC2)cc1 (stereo not given),"inconclusive: 17.8 µM [inhibitor, full curve, poor fit]"
19,CCCn1nc([N+](=O)[O-])c(C(C#N)c2nc3ccccc3s2)c(Cl)c1=O (stereo not given),"inconclusive: 79.4 µM [inhibitor, partial curve, poor fit]"
20,c1ccc2c(CNCCN3CCOCC3)cccc2c1,"inconclusive: 89.1 µM [inhibitor, partial curve, poor fit]"
21,Cc1ccccc1OCc1nc2ccccc2[nH]1,"inconclusive: 50.1 µM [inhibitor, partial curve, poor fit]"
22,C=CCNC(=O)c1onc(CSc2ccc(Cl)cc2)c1C(=O)NCC=C,inactive

row,SMILES,Potency
1,O=C(Nc1ccccc1Sc1ccccc1)c1cnn2c1NC(=C1CC1)C=C2C(F)(F)F,inactive
2,CC(C)OCCCNC(=O)CN1C(=O)COc2ccc(S(=O)(=O)N3CCOCC3)cc21,inactive
3,C#CCOCCOCCOCCNc1nc(N2CCN(C(=O)[C@H](CCCN=C(N)N)n3cc(C(N)[C@@H](C)CC)nn3)CC2)nc(N2CCN(C(=O)[C@H](CCC(=O)O)n3cc([C@@H](N)CCCCN)nn3)CC2)n1 (stereo not given in full),inactive
4,CCCCN1CCc2c(c3ccccc3n2Cc2ccccc2)C1,inactive
5,CCNc1ccc(C(=O)OCC(=O)N2CCCC2)cc1[N+](=O)[O-],"inconclusive: 44.7 µM [inhibitor, partial curve, poor fit]"
6,Cc1c(NC(=O)COC(=O)CCC(=O)c2ccc(Cl)cc2)c(=O)n(-c2ccccc2)n1C,"inconclusive: 28.2 µM [inhibitor, full curve, poor fit]"
7,O=C(NCc1cccs1)c1ccc(S(=O)(=O)N2CCCCC2)cc1,"inconclusive: 35.5 µM [inhibitor, full curve, poor fit]"
8,COc1ccc(C2CC(=O)c3sc(N)nc3C2)cc1 (stereo not given),"inconclusive: 50.1 µM [inhibitor, partial curve, poor fit]"
9,O=C1C(c2c(O)[nH]c3ccccc23)=Nc2ccccc21,"inconclusive: 50.1 µM [inhibitor, partial curve, poor fit]"
10,COc1c(C)cc(Br)cc1C(=O)Nc1cccc(-c2nc3ncccc3o2)c1,"inconclusive: 35.5 µM [inhibitor, full curve, poor fit]"
11,COc1cccc(/C=C2\SC(=S)N(CCC(=O)N3CCCCC3)C2=O)c1,inactive
12,CN1C(=O)C(CC(=O)Nc2ccc(F)cc2)N(Cc2ccco2)C1=S (stereo not given),"inconclusive: 100 µM [inhibitor, single point]"
13,CC(C)Cc1ccc(C(C)C(=O)Nc2cccnc2)cc1 (stereo not given),"inconclusive: 89.1 µM [inhibitor, partial curve, poor fit]"
14,O=C(NCc1cccnc1)/C(=C\c1ccc(-c2ccc(Br)cc2)o1)S(=O)(=O)c1ccccc1,"inconclusive: 50.1 µM [inhibitor, partial curve, poor fit]"
15,COc1ccc(C(=O)Nc2ccc(Cl)cn2)cc1Cl,inactive
16,COc1ccc(CNC(=O)CCc2c(C)nc3nc(CNC(=O)OC(C)(C)C)nn3c2C)cc1,inactive
17,COc1ccc(NC2CCCN(C(=O)CSc3ccccn3)C2)cc1OC (stereo not given),"inconclusive: 89.1 µM [inhibitor, single point]"
18,N/C(=N\OC(=O)c1cccc2ccccc12)c1cccc([N+](=O)[O-])c1,"inconclusive: 28.2 µM [inhibitor, full curve, poor fit]"
19,CN1CCN(C(=O)CCCN2C(=O)/C(=C/c3cccc(Br)c3)SC2=S)CC1,inactive
20,C#CCOCCOCCOCCNc1nc(N2CCN(C(=O)[C@H](Cc3cc4ccccc4[nH]3)n3cc([C@@H](N)Cc4ccc(O)cc4)nn3)CC2)nc(N2CCN(C(=O)[C@H](Cc3cc4ccccc4[nH]3)n3cc([C@@H](N)CC(C)C)nn3)CC2)n1,"inconclusive: 79.4 µM [inhibitor, partial curve, poor fit]"
21,O=C(c1cc(-c2ccc(Br)cc2)on1)N1CCOCC1,inactive
22,O=C1c2ccccc2-c2onc3ccc(NCc4ccco4)c1c23,"inconclusive: 31.6 µM [inhibitor, partial curve, poor fit]"

row,SMILES,Potency
1,COc1ccccc1CNCC(=O)Nc1ccc(N(C)C)cc1,"inconclusive: 50.1 µM [inhibitor, partial curve, poor fit]"
2,Nc1ccccc1N1CCN(C(=O)c2ccccc2)CC1,inactive
3,CSc1nc(O)c(C(c2ccc(OC(C)C)cc2)c2c(O)nc(SC)[nH]c2=O)c(=O)[nH]1,"inconclusive: 50.1 µM [inhibitor, partial curve, poor fit]"
4,COc1ccc(CCNC(=O)CC2SC(N)=NC2=O)cc1OC (stereo not given),"inconclusive: 79.4 µM [inhibitor, partial curve, poor fit]"
5,O=C(CSc1nc(=O)n(CCCN2CCOCC2)c2c1CCCC2)Nc1ccc(Cl)cc1,inactive
6,O=C(O)c1ccc(Nc2ncnc3c2cnn3Cc2ccccc2)cc1,"inconclusive: 31.6 µM [inhibitor, full curve, poor fit]"
7,OC[C@@H]1CCCN1Cc1cn(-c2ccccc2)nc1-c1ccc2c(c1)OCO2,inactive
8,CNC(=O)c1ccc(Nc2nnc(-c3ccc(C(N)=O)cc3)c3ccccc23)cc1,"inconclusive: 70.8 µM [inhibitor, partial curve, poor fit]"
9,Cc1nnc(-c2ccc(Oc3ccc(Cl)cc3)c([N+](=O)[O-])c2)o1,"inconclusive: 17.8 µM [inhibitor, full curve, poor fit]"
10,Cc1nc(N=Nc2cc(S(=O)(=O)O)ccc2S(=O)(=O)O)c(COP(=O)(O)O)c(C=O)c1O,"inconclusive: 0.752 µM [inhibitor, partial curve, poor fit]"
11,O=C(C=Cc1ccccn1)c1ccccc1,"inconclusive: 17.8 µM [inhibitor, full curve, poor fit]"
12,O=c1c(-c2nnc(SCc3ccc(Cl)c(Cl)c3)o2)cccn1Cc1ccccc1,"inconclusive: 89.1 µM [inhibitor, single point]"
13,CCOC(=O)N1CCC(=C2c3ccc(Cl)cc3CCc3cccnc32)CC1,inactive
14,O=C(NCCc1ccc(F)cc1)c1coc(=O)c(Br)c1,inactive
15,COc1cc(C(=S)N2CCN(c3cccc(Cl)c3)CC2)ccc1O,"inconclusive: 79.4 µM [inhibitor, partial curve, poor fit]"
16,S=c1[nH]c2cnccc2n1Cc1ccccc1,"inconclusive: 79.4 µM [inhibitor, partial curve, poor fit]"
17,CCc1nn(CC(=O)NCc2ccc(OC)c(OC)c2)c(=O)c2cc3sc(C)cc3n12,"inconclusive: 89.1 µM [inhibitor, single point]"
18,CCCN1C(=O)/C(=C/c2ccc(C)o2)SC1=Nc1ccc(OCC)cc1,"inconclusive: 17.8 µM [inhibitor, full curve, poor fit]"
19,COc1cc(NC(=O)c2cc([N+](=O)[O-])ccc2NC(=O)CNCc2ccccn2)cc(OC)c1,"inconclusive: 50.1 µM [inhibitor, partial curve, poor fit]"
20,O=C(Nc1ccc([N+](=O)[O-])cc1Br)c1cccnc1,inactive
21,CCOc1ccc(-c2nn[nH]n2)cc1,"inconclusive: 50.1 µM [inhibitor, partial curve, poor fit]"
